The text below walks through data of PubChem BioAssay AID1745853 (National Center for Advancing Translational Sciences (NCATS), 2022).

Assay in all cases: Primary Screen for Target Class Profiling of Small Molecule Inhibitors of Methyltransferases
For assay [1], the target named is Glycine N-methyltransferase (Homo sapiens) (UniProt Q14749). As to conditions: purified enzyme, MTase-Glo SAH luminescence; measured here: GNMT inhibition; at 40 µM; stronger effect = lower value. The procedure, abridged:
(§1)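 Each enzyme was reacted with SAM and its substrate, with compounds tested once at 40 uM; SAH formed was read by MTase-Glo luminescence.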

The target in assay [2] is Guanidinoacetate N-methyltransferase (Homo sapiens) (UniProt Q14353). As to conditions: purified enzyme, MTase-Glo SAH luminescence; measured here: GAMT inhibition; at 40 µM; stronger effect = lower value. Put shortly:
as §1

For assay [3], the target named is Histamine N-methyltransferase (Homo sapiens) (UniProt P50135). As to conditions: purified enzyme, MTase-Glo SAH luminescence; measured here: HNMT inhibition; at 40 µM; stronger effect = lower value. The procedure, abridged: as §1
Assay [4] deals with Nicotinamide N-methyltransferase (Homo sapiens) (UniProt P40261). As to conditions: purified enzyme, MTase-Glo SAH luminescence; measured here: NNMT inhibition; at 40 µM; stronger effect = lower value. Put shortly:
as §1

The target of assay [5] is Phenylethanolamine N-methyltransferase (Homo sapiens) (UniProt P11086). Conditions: purified enzyme, MTase-Glo SAH luminescence; measured here: PNMT inhibition; at 40 µM; stronger effect = lower value. The procedure, abridged:
as §1

The other results are listed elsewhere or left out. Further columns of the screen follow, without active or inactive calls.
On the % scale 0 is the no-effect control and ±100 the full control effect.

For `CC(C)NC(=O)c1ccc2c(=O)n(C(C)C)c3nn(CC(=O)N(C)c4ccc(F)cc4)c(=O)n3c2c1`, the activity change, negative = inhibition in assay [1] was 5.52%; in assay [2] it was 0%; in assay [3] it was 3.86%; in assay [4] it was -0.946%; in assay [5], 4.67%.
The corresponding values for `CCCOCC(=O)N1CCc2onc(-c3ccc(C(F)(F)F)cc3)c2C1` are -9.47%, -6%, -3.6%, -13.4% and -10.6%.
The corresponding values for `CCC(C)NC(=O)c1ccc2c(=O)n(Cc3ccccc3)c3nn(Cc4cccc(OC)c4)c(=O)n3c2c1` (stereo not drawn) are 1.37%, 5.93%, -2.33%, 1.24% and 1.72%.
The corresponding values for `CN(Cc1cccn1C)C(=O)C1CC1` are -4.17%, -4.54%, -0.111%, -10.6% and -5.71%.
On to `CCOc1c(CN(C)C(=O)Cn2cccc(OC)c2=O)cccc1OC`, for which the activity change, negative = inhibition in assay [1] is -83.3%; in assay [2] it was -68.5%; in assay [3], -14.2%; in assay [4] it was -18.3%; in assay [5], -23.3%.
`CCC(C(=O)N1CCN(c2ccccn2)CC1)n1ccc2cc(S(=O)(=O)N3CCCCC3)ccc21` (stereo not drawn): the activity change, negative = inhibition in assay [1] came out at 1.02%; in assay [2], 2.26%; in assay [3] it was 3.28%; in assay [4] it was 0.259%; in assay [5], 0.482%.
The corresponding values for `CCOc1ccc(C(=O)Cn2nc3n(C)c(=O)c4ccc(C(=O)NC5CCCC5)cc4n3c2=O)cc1` are 1.05%, 0%, -2.86%, 0.634% and 2.53%.
The corresponding values for `CNCCCN1c2ccccc2CCc2ccccc21` are 1.94%, 14.6%, -21.2%, -9.15% and 10.9%.
Regarding `C=C1C(O)CC2C(C(=O)O)=COC(O[C@@H]3O[C@H](COC(=O)/C=C/c4ccc(O)cc4)[C@@H](O)[C@H](O)[C@H]3O)C12` (stereo partly drawn), the activity change, negative = inhibition was 0% in assay [1]; -0.882% in assay [2]; 3.41% in assay [3]; -13% in assay [4]; 3.16% in assay [5].
The corresponding values for `COCCN1C(=O)c2c(NC(C)=O)c3cc(F)ccc3n2CC1(C)C(=O)NC1CCCCCC1` (stereo not drawn) are -6.24%, -4.9%, -3.37%, -6.12% and -2.42%.
`CC(C)(C(=O)NCC(F)(F)C(F)(F)F)C(=O)N[C@@H]1C(=O)Nc2ccccc2-c2ccccc21`: the figures for the activity change, negative = inhibition in assay [2], in assay [4] and in assay [5] were 3.43%, -18.9% and 2.73%, respectively.
Consider `CN1C[C@H](NC2CCC2)CCC[C@@H](C(=O)NC2CCOCC2)CC1=O`, for which the activity change, negative = inhibition in assay [1] is -4.06%; in assay [2], -2.24%; in assay [3] it was -1.4%; in assay [4], -3.56%; in assay [5], -12.7%.
The corresponding values for `CC12CCC(=O)C=C1C(O)CC1C2C(O)CC2(C)C1CC[C@]2(O)C(=O)CO` (stereo partly drawn) are 1.33%, 7.09%, 11.2%, -4.83% and 8.07%.
With `CCOC(=O)c1cc2n(n1)CC(C)(C(=O)NC1CCCC1)N(c1ccc(C)cc1C)C2=O` (stereo not drawn), the activity change, negative = inhibition came out at 8.29% in assay [1]; 3.35% in assay [2]; 7.87% in assay [3]; 6.25% in assay [4]; 6.84% in assay [5].
The corresponding values for `Cc1ccc(Cl)cc1NC(=O)N1CCn2c(C)ccc2C1C(C)C` (stereo not drawn) are 2.48%, 0.097%, -7.13%, -7.95% and -0.667%.
The corresponding values for `CN1CCN(CCCN2C(=O)c3ccc(-c4ccco4)n3CC2(C)C(=O)NC2CCCC2)CC1` (stereo not drawn) are -0.543%, 4.62%, 1.02%, 8.18% and 0.982%.
The corresponding values for `O=C(CCc1nnc2n(Cc3ccccc3Cl)c(=O)c3ccccc3n12)NCc1ccc(F)cc1` are -0.244%, 0%, 13.2%, 11.7% and 1.86%.
With `Cc1onc(C(=O)NCc2ccc3[nH]c(-c4ccc(F)cc4)c(C)c3c2)c1CO`, the activity change, negative = inhibition was -16.4% in assay [1]; -2.98% in assay [2]; -2.25% in assay [3]; -11.6% in assay [4]; -3.85% in assay [5].
The corresponding values for `CCc1ccccc1NC(=O)N1C[C@@H](F)C[C@H]1C(=O)N1CCc2ccccc2C1` are -5.51%, 1.41%, -2.06%, -4.54% and -1.84%.
The corresponding values for `Cc1oc2c(c1C(=O)N1CCOCC1)CN(Cc1cccnc1)CC2` are -1.15%, -1.79%, 0.846%, 0.932% and -2.54%.
As for `CC1(C(=O)NCc2ccccc2)Cn2c(cc3occc32)C(=O)N1Cc1ccc(Cl)cc1` (stereo not drawn), the activity change, negative = inhibition in assay [1] is 3.58%; in assay [2], 0%; in assay [3], -10.5%; in assay [4], -12.7%; in assay [5], -25.8%.
The corresponding values for `Cn1cc(CN2CCCC(COc3ccccc3C(=O)N3CCCCC3)C2)c2ccccc21` (stereo not drawn) are -7.97%, -7.9%, -50.8%, -17.4% and 2.65%.
Take `Cc1nc(-c2cn(C3CCCN(C(=O)c4cccc(Br)c4)C3)nn2)no1` (stereo not drawn): the activity change, negative = inhibition in assay [1] was 0.053%; in assay [2] it was 2.24%; in assay [3], 3.68%; in assay [4], -4.44%; in assay [5], 0.244%.
The corresponding values for `COc1ccc(O[C@@H]2O[C@H](CO)[C@@H](O)[C@H](O)[C@H]2O)cc1OC` are 2.83%, -2.97%, -9.47%, -16.2% and 4.31%.
On to `Cc1ccc(NC(=O)c2ncn3c2C(=O)N(C2CC2)C(C)(C(=O)NCCCOC(C)C)C3)cc1F` (stereo not drawn), for which the activity change, negative = inhibition in assay [1] was -2%; in assay [2], 1.79%; in assay [3], -2.01%; in assay [4], -2.15%; in assay [5], -2.01%.
Take `CC[C@H]1CN(c2nc(N)c(C(N)=O)nc2Cl)CCN1C1CCN(Cc2ccc(Cl)cc2)CC1`: the activity change, negative = inhibition in assay [1] is -1.03%; in assay [2], 5.14%; in assay [3], 0.836%; in assay [4] it was -59%; in assay [5], 2.09%.
The corresponding values for `COc1ccc(CNC(=O)CCc2nnc3n(Cc4ccccc4Cl)c(=O)c4ccccc4n23)cc1` are -7.61%, -2.95%, -3.4%, -7.11% and -7.8%.
The corresponding values for `Cc1c(-c2ccccc2F)[nH]c2ccc(CNC(=O)C3C=CCN3)cc12` (stereo not drawn) are -7.68%, -3.87%, -5.48%, -12.3% and -5.33%.
The corresponding values for `CCCn1c(=O)c2cc(Cl)ccc2n2c(SCC(=O)NCc3ccc(Cl)cc3)nnc12` are 5.03%, 0%, 9.1%, 4.15% and 5.53%.
With `Cc1cccc(Nc2nc3c(S(=O)(=O)c4ccccc4)nnn3c3ccccc23)c1`, the activity change, negative = inhibition is -7.93% in assay [1]; -3.54% in assay [2]; -7.68% in assay [3]; -6.51% in assay [4]; -7.99% in assay [5].
The corresponding values for `CC(CCC1C(C(=O)O)=CC(=O)CC1(C)C)O[C@@H]1O[C@H](CO)[C@@H](O)[C@H](O)[C@H]1O` (stereo partly drawn) are 0%, 4.19%, 1.85%, -7.98% and 5.67%.
Take `NC(N)=NC(=O)c1cnn(-c2cccc3ncccc23)c1C1CC1`: the activity change, negative = inhibition in assay [1] was -5.03%; in assay [2], -4.7%; in assay [3], -19.6%; in assay [4] it was -59.6%; in assay [5], -11.9%.
The corresponding values for `Cc1ccc(-c2noc([C@@H]3Cc4nc[nH]c4CN3C(=O)NC3CCCCC3)n2)cc1` are -10.6%, -8.7%, -8.69%, -15.4% and 10.1%.
The corresponding values for `Cc1ccc(-c2c(-c3nn(C)c4ncnc(N5CC[C@H](N6CCCCC6)C5)c34)cnn2C)cc1` are 0.957%, 5.82%, 11.1%, -19.4% and 2.63%.
The corresponding values for `c1cnc(-c2noc(-c3nc(-c4ccc5c(c4)OCO5)no3)n2)cn1` are -4.64%, -9.24%, -2.55%, -15.2% and -18.7%.
Regarding `CCC1c2ccc(C)n2CCN1C(=O)Nc1ccccc1Br` (stereo not drawn), the activity change, negative = inhibition in assay [1] was 5.47%; in assay [2], 2.07%; in assay [3], 2.04%; in assay [4] it was -7.95%; in assay [5], 1.94%.
The corresponding values for `CCN1C(=O)Cc2cc(C(=O)Nc3ccc(F)cc3)ccc21` are -2.84%, -1.86%, 0.991%, -3.62% and 2.86%.
Regarding `C/C=C/C=C/C(CC(=O)O)Nc1ccc(C=O)cc1` (stereo not drawn), the activity change, negative = inhibition in assay [1] was -26.6%; in assay [2] it was -3.6%; in assay [3] it was 2.07%; in assay [4], -17.8%; in assay [5] it was -8.16%.
The corresponding values for `CCCN1C(=O)c2c(C(=O)NCCc3cccc(C)c3)ncn2CC1(C)C(=O)NC1CCCC1` (stereo not drawn) are 0.277%, 0%, 2.38%, 5.2% and -4.57%.
